In PubChem BioAssay (NCATS):
Values joined by “and” are separate entries in the source; they are usually repeats but may differ in a detail not shown here. Identical values can stand only once. This list was built around the results that the source calls inconclusive (neither active nor inactive); the mix of calls is not that of the screen. A potency beside an inconclusive call is a rough fit, not a confirmed value. Active and inactive are the calls of the source. Calls follow the shape of the dose curve; as a rule, active = well fitted cell-killing curve with a large enough effect; inconclusive = small, poorly fitted or top-dose-only effect; inactive = no such curve, though single readings can be large or run the other way.

Assay: qHTS of pediatric cancer cell lines to identify multiple opportunities for drug repurposing: Primary screen for OHS-50 cells (AID 1347103); also: nearly all actives have a fitted effect of over 40% in size;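 as to activity change, negative = cytotoxic: plate controls were DMSO neutral control for no effect and bortezomib positive control for full effect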
Settings: OHS-50 osteosarcoma viability, CellTiter-Glo luminescence, 48 h; series mostly up to 57.3 µM; activity change, negative = cytotoxic: at the top concentration
Outline: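 Cells (500-1,000/well) rested 5 h, then received compounds for 48 h; metabolically active cells were measured by CellTiter-Glo luminescence. Final concentrations spanned up to 46 µM (MIPE, 11-point) or 0.59 nM-46 µM (NPC, 8-point) in primary screens, 11-point in follow-ups.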
Potency is read from the fitted curve at half-maximal effect; tags tell the direction and shape of the fitted curve.

SMILES	Potency	activity change, negative = cytotoxic
CCCn1c(=O)c2[nH]c(-c3cnn(Cc4cccc(C(F)(F)F)c4)c3)nc2n(CC)c1=O	inconclusive: 9.68 µM [cytotoxic, partial curve]	
CN(C[C@@H]1COCCO1)S(=O)(=O)Nc1ccc2ccc3ncc(-c4cnn(C)c4)cc3c(=O)c2c1	active: 1.22 µM	
Cc1cn2c(-c3cn[nH]c3)cnc2c(Nc2ccc(C(=O)N3CCNCC3)cc2F)n1	active: 13.7 µM	
N#CNC(=NCCCCCCOc1ccc(Cl)cc1)Nc1ccncc1	active: 21.7 µM	
COc1cc(Nc2nc3ccccc3nc2NS(=O)(=O)c2ccc(NC(=O)c3ccc(C)c(OC)c3)cc2)cc(OC)c1	inconclusive: 9.68 µM [cytotoxic, partial curve]	
N#Cc1cc(NC(=O)Nc2nnc(-c3ccncc3)s2)ccc1-c1cn[nH]c1		inactive: 9.07%
Oc1ccc(-c2ccc(-c3cc(Nc4cccc(CNC5CC5)c4)n[nH]3)cc2)c(O)c1	active: 1.09 µM	
CCOC(=O)C1=C[C@]2(CC)CCCN3CCc4c(n1c1ccccc41)[C@@H]32	inconclusive: 24.6 µM [cytotoxic, single point]	
COC(=O)N[C@H](C(=O)N1CCC[C@@H]1c1ncc(-c2ccc(-c3ccc(-c4cnc([C@@H]5CCCN5C(=O)[C@@H](NC(=O)OC)C(C)C)[nH]4)cc3)cc2)[nH]1)C(C)C	inconclusive: 30.6 µM [cytotoxic, single point]	
CCc1nc(N)nc(N)c1-c1ccc(Cl)cc1	inconclusive: 17.4 µM [cytotoxic, partial curve] and inconclusive: 24.3 µM [cytotoxic, partial curve]	
COc1cc(C(C)C)c(Oc2cnc(NC(CO)CO)nc2N)cc1I	inconclusive: 30.6 µM [cytotoxic, single point]	
CN(CCOc1ccc(NS(C)(=O)=O)cc1)CCc1ccc(NS(C)(=O)=O)cc1	inactive	
CO[C@H]1/C=C\O[C@@]2(C)Oc3c(C)c(O)c4c(O)c(c5c(nc6cc(C)ccn65)c4c3C2=O)NC(=O)C(C)=CC=C[C@H](C)[C@H](O)[C@@H](C)[C@@H](O)[C@@H](C)[C@H](OC(C)=O)[C@H]1C	inconclusive: 21.7 µM [cytotoxic, partial curve]	
COc1c(O)cc2c(c1O)[C@@H]1O[C@H](CO)[C@@H](O)[C@H](O)[C@H]1OC2=O		inactive: -5.01%
O=C1NC(=O)C(=Cc2ccc3c(c2)OC(F)(F)O3)S1	inconclusive: 19.3 µM [cytotoxic, partial curve]	
